Patent publication US20150353645A1

Tests used:
[1] = target: MUC1 peptide-biotin (cat#353951, American Peptide Company); assay: ELISA at 2 ug/ml mAb, MUC1 peptide-biotin on NeutrAvidin; PBS background 0.10
[2] = target: MUC1 peptide-biotin (cat#353951, American Peptide Company); assay: ELISA at 2 ug/ml mAb, MUC1 peptide-biotin on NeutrAvidin; PBS background 0.08

| ELISA signal (unit not given) [1] | ELISA signal (unit not given) [2] | Binder |
| --- | --- | --- |
| 0.11 |  | human anti-GD2 monoclonal antibody 2F7 (antibody, human IgG1, V domains shown) VH: EVQLLESGAEVKKPGASVKVSCKASGYIFSRYAIHWVRQAPGQGLEWMGWINPFNGFTKYSQKFQGRVALTRDRSATTGYMELSSLTSEDTAVYYCARLESNKFYAFDIWGQGTMVTVSS VL: EIVMTQSPLSLPVTPGEPASIS[skipping about 80 residues]FGQGTKVEIK |
|  | 0.08 | human anti-GD2 monoclonal antibody 1B7 (antibody, human IgG1, V domains shown) VH: QVQLVESGAEVKKPGASVKVSCKASGYTFTSYAIHWVRQAPGQRLEWMGWINAGNGYRKYSQKFQGRVTVTRDTSASTAYMELSSLRSEDTAVYYCARFEGGMVTAMDFWGQGTLVTVSS VL: [skipping about 100 residues]FGPGTKVDIK |
|  | 0.08 | human anti-GD2 monoclonal antibody 2H12 (antibody, human IgG1, V domains shown) VH: EVQLLESGAEVKKPGASVKVSCKASGYTFTSYAIHWVRQAPGQRLEWMGWINAGNGYRKYSQKFQGRVTVTRDTSASTAYMELSSLRSEDTAVYYCARFEGGMVTAMDYWGQGTLVTVSS VL: [skipping about 100 residues]FGPGIKVDIK |
